According to PubChem BioAssay AID1508642 (National Center for Advancing Translational Sciences (NCATS), 2021):
In all, about 43,000 compounds went through this assay and about 200 (0.47%) were called active. About 12% were inconclusive and are not listed. Calls follow the shape of the dose curve; as a rule, active = well fitted cell-killing curve with a large enough effect; inconclusive = small, poorly fitted or top-dose-only effect, or effect the other way; inactive = flat fitted curve, though single readings scatter. The list shows a part of the results.

Assay: Cell viability qHTS assay in S16 Pmp22-F2sN cells; also: nearly all actives have a fitted effect of over 65% in size
Conditions: S16 Pmp22-F2sN Schwann cells (luciferase reporters placed in the Pmp22 gene) viability, CellTiter-Glo, 24 h; series mostly up to 57.5 µM; activity change, negative = cytotoxicity: at the top concentration
Method in brief: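 Seed 500-1,000 S16 Pmp22-F2sN cells per well in phenol-red-free DMEM with 10% heat-inactivated FBS; pin-add 23 nL compound; incubate 24 h at 37C; add CellTiter-Glo, wait 15 min protected from light; read luminescence.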
% is scaled to controls: 0 for no effect and ±100 for the full control effect; potency is read from the fitted curve at half-maximal effect.

Structure (SMILES) | activity change, negative = cytotoxicity | Potency
COc1ccc(-c2nnc(SCC(=O)Nc3cccc(C(F)(F)F)c3)s2)cc1 | inactive: -21.9% | –
CC(C)(C)OC(=O)N1CCC(c2c(C(=O)NCc3ccccc3)cnn2-c2cccc(F)c2)CC1 | inactive: -23.8% | –
COc1ccccc1-c1nc2n(n1)C(c1ccccc1Cl)C(C(=O)Nc1cccnc1)=C(C)N2 (centres undefined) | inactive: -0.56% | –
CCCCn1cc(S(=O)(=O)c2ccc(C)cc2)c(=O)c2cc(F)c(N3CCCCC3)cc21 | inactive: 0.0666% | –
CCOc1ccccc1NC(=O)CSc1nnc2[nH]c(=O)cc(C)n12 | inactive: 1.85% | –
Cc1cc(O)c(C(c2ccccc2)N2CCCCC2)c(=O)n1Cc1ccco1 (centres undefined) | inactive: 1.8% | –
COc1ccc(C)cc1NC(=O)c1ccc(NS(=O)(=O)c2c(C)noc2C)cc1 | inactive: -0.116% | –
COc1ccc(-c2noc(CN(C)S(=O)(=O)c3c(C)cc(C)cc3C)n2)cc1OC | inactive: -7.88% | –
CCC(C(=O)Nc1cccc(Cl)c1C)n1nc(C)c2sc3ccccc3c2c1=O (centres undefined) | inactive: 3.2% | –
CC(=O)N1c2ccccc2C(=O)C1N1CCN(c2ccccc2F)CC1 (centres undefined) | inactive: -4.73% | –
CCOC(=O)c1ccc(NC2=CC(c3ccc(OCC)cc3)N(c3ccc(C(=O)OCC)cc3)C2=O)cc1 (centres undefined) | inactive: 7.64% | –
CCOC(=O)c1cnc2cc(C(F)(F)F)ccc2c1Nc1cc(C)ccc1OC | inactive: 5.15% | –
Cc1ccc(-c2nc(CCNC(=O)c3ccc(C)c(C)c3)cs2)cc1 | inactive: -3.79% | –
Cc1ccc(S(=O)(=O)c2c(O)cc(C)c(NS(=O)(=O)c3ccc(Br)cc3)c2C)cc1 | inactive: -15.2% | –
O=C(CSc1nc2c([nH]c3ccccc32)c(=O)n1-c1ccc(Cl)cc1)N1CCc2ccccc21 | inactive: 4.44% | –
CSc1cccc(NC(=O)c2cnn(-c3ccc(F)cc3)c2-n2cccc2)c1 | inactive: 5.55% | –
Cc1ccc(-c2nc3c(c(SCc4ccc(Br)cc4)n2)Cc2c(CO)cnc(C)c2O3)cc1 | inactive: 6.99% | –
COc1ccc(CCNC(=O)CCc2c(C)c3cc4c(C)c(C)oc4cc3oc2=O)cc1OC | inactive: -1.12% | –
O=C(Cn1ncn2c(cc3sccc32)c1=O)NCCc1ccccc1 | inactive: -4.28% | –
Cc1ccc2c(=O)cc(C(=O)Nc3ccc(S(=O)(=O)N(C)c4ccccc4)cc3)oc2c1C | inactive: -5.29% | –
CC(=O)Nc1ccc(S(=O)(=O)NC2(C(F)(F)F)C(=O)Nc3c2c(=O)[nH]c(=O)n3-c2cccc(Cl)c2)cc1 (centres undefined) | inactive: 3.32% | –
CCOC(=O)c1cnc2cc(C(F)(F)F)ccc2c1Nc1ccc(F)cc1F | inactive: 16.8% | –
CCC(=O)N1CCc2cc(CNS(=O)(=O)c3cc(OC)ccc3OC)ccc21 | inactive: 2.19% | –
CCc1nc2ccc(C(=O)N3CCN(c4cc(Cl)ccc4C)CC3)cc2nc1CC | inactive: -15.7% | –

Structure (SMILES) | activity change, negative = cytotoxicity | Potency
Cc1ccc(S(=O)(=O)NCC2CCC(C(=O)NCCc3ccccc3)CC2)cc1 (centres undefined) | inactive: 9.34% | –
Cc1ccc(CSc2nc3cccnc3n2Cc2ccc(C(=O)NCc3ccco3)cc2)cc1 | inactive: 2.28% | –
Oc1ccc(Cl)cc1C1=Nc2ccccc2N=C(c2ccccc2)C1 | inactive: -1.07% | –
O=C(c1ccc(F)cc1)c1cn(Cc2ccccc2F)c2cc3c(cc2c1=O)OCCO3 | inactive: -4.43% | –
Cc1cccc(-c2nc(CN3CCCC(C(=O)N4CCN(c5cc(Cl)ccc5C)CC4)C3)c(C)o2)c1 (centres undefined) | inactive: -2.84% | –
Cc1cccc(CNC(=O)Cn2c(-c3cccs3)cc3ccccc32)c1 | inactive: -0.624% | –
Cc1cccc(OCC(=O)Nc2ccccc2C(=O)OCc2cc(=O)n3ccsc3n2)c1 | inactive: -6.77% | –
Cn1ncc2c(Nc3cc(C(F)(F)F)ccc3Cl)ncnc21 | inactive: -3.44% | –
COc1cccc(NC(=O)CN2C(=O)c3cccc4cccc2c34)c1 | inactive: -2.65% | –
COC(=O)CSc1ncc2c(n1)-c1ccccc1N(Cc1ccc(Cl)cc1)S2(=O)=O | inactive: -0.759% | –
COc1ccc(CCn2c3c(c(=O)[nH]c2=O)C(NC(=O)c2ccc(Cl)cc2)(C(F)(F)F)C(=O)N3)cc1OC (centres undefined) | inactive: 10.8% | –
COc1ccc(CNc2ncnc3c2nc2n3CCCC2)cc1 | inactive: -6.68% | –
CCc1ccc(-n2nnc(-c3nc(-c4cccs4)no3)c2N)cc1 | inactive: 6.86% | –
CC1CCN(C(=O)CSc2n[nH]c(-c3ccc(F)cc3)n2)CC1 | inactive: 1.31% | –
CC(C)OC(=O)c1ccc(Cn2nnc3sc4c(c3c2=O)CCCC4)cc1 | inactive: -4.46% | –
COc1ccc2c(c1)c1c(c(=O)n(-c3ccccc3C)c(=O)n1Cc1cccc(C(F)(F)F)c1)n2C | inactive: -1.4% | –
CCCN(c1c(C)n(C)n(-c2ccccc2)c1=O)S(=O)(=O)c1ccc(C)cc1 | inactive: -7.28% | –
CC(NC(=O)c1ccc2c(c1)N(Cc1ccc(Cl)cc1)C(=O)CS2)c1ccccc1 (centres undefined) | inactive: 3.45% | –
CCN(c1cccc(C)c1)S(=O)(=O)c1cc(Br)cc2c1N(C(C)=O)C(C)C2 (centres undefined) | inactive: 16.6% | –
CCOc1ccc(CNC(=O)c2ccc3c(c2)c(C)c(C)n3Cc2ccccc2)cc1OC | inactive: -0.755% | –
CCOc1ccc(NC(=O)C(Cc2ccccc2)NS(=O)(=O)c2ccc3c(c2)oc(=O)n3C)cc1 (centres undefined) | inactive: -9.64% | –
Cc1c(Cl)cccc1-c1ccc(CNCCSc2nnnn2-c2ccccc2)o1 | inactive: 5.96% | –
COc1ccccc1C(=O)Nc1ccc2nc(SCC(=O)N(C)c3ccccc3)sc2c1 | inactive: 0.295% | –
CCN(CC)S(=O)(=O)c1ccc(NC(=O)CN(c2ccccc2)S(=O)(=O)N(C)C)cc1 | inactive: 3.11% | –

Structure (SMILES) | activity change, negative = cytotoxicity | Potency
CCOc1ccc(NC(=O)c2c(Nc3ccccc3C)sc(C(=O)c3ccccc3)c2N)cc1 | inactive: -12.9% | –
O=C(CN1C(=O)C2(SCC(=O)N2c2cccc(Cl)c2)c2ccccc21)NCCc1ccccc1 (centres undefined) | inactive: -19.8% | –
Cc1ccc(-n2ncc(C(=O)N3CCN(c4cc(Cl)ccc4C)CC3)c2C2CCN(C(=O)OC(C)(C)C)CC2)cc1 | inactive: 1.79% | –
COc1ccc(CCNC(=O)c2ccc3c(c2)N(Cc2ccccc2)C(=O)c2ccccc2S3=O)cc1OC (centres undefined) | inactive: -13% | –
COC(=O)c1ccc(Cl)cc1NC(=O)Nc1nnc(N2CCCC2)s1 | inactive: 5.92% | –
CCOC(=O)C(CC)n1nnc2sc(-c3ccccc3)cc2c1=O (centres undefined) | inactive: -15.7% | –
O=C(NCCS(=O)(=O)N1CCN(c2ccc(F)cc2)CC1)C(c1ccccc1)c1ccccc1 | inactive: -2.14% | –
CC(=O)c1cccc(NC(=O)CSc2nnc3ccc(-c4ccc(Br)cc4)nn23)c1 | inactive: 8.49% | –
COc1ccc(CN2C(=O)C(NC(=O)c3cccc(C)c3)(C(F)(F)F)N=C2c2ccccc2)cc1 (centres undefined) | inactive: 1.28% | –
CCOc1ccc(NC(=O)CSc2cn(CCNC(=O)c3ccccc3F)c3ccccc23)cc1 | inactive: 23% | –
Cn1c2ccccc2c2cnn(CC(=O)NCCCN3CCCCC3)c(=O)c21 | inactive: -0.0522% | –
CCc1ccccc1NC(=O)CSc1nncn2c1cc1oc(C)cc12 | inactive: 2.76% | –
Cc1ccc(CNC(=O)CSc2nc3c(sc4ccccc43)c(=O)n2CCCOC(C)C)cc1 | inactive: -3.42% | –
Cc1ccc(NC(=O)Cn2c(=O)n(Cc3ccccc3)c(=O)c3sc4ccccc4c32)cc1 | inactive: 0.285% | –
Cc1ccc(-n2c(=O)c3sc4ccccc4c3n(CC(=O)NC3CCCC3)c2=O)cc1C | inactive: -1.4% | –
COc1ccc(OC)c(CCNC(=O)c2cc3c(s2)-c2c(C)cccc2OC3)c1 | inactive: -14.6% | –
Cc1ccc2oc(=O)c3cnn(CC(=O)N4CCN(c5ccc(F)cc5)CC4)c3c2c1 | inactive: 7.51% | –
Cc1cccc(NC(=O)c2oc3ccccc3c2NC(=O)c2cc(=O)c3ccccc3o2)c1 | inactive: 6.51% | –
CCOc1ccc(N2CC(NC(=O)c3ccc(Cl)cc3)CC2=O)cc1 (centres undefined) | inactive: 3.9% | –
CN(c1ccc(F)cc1)S(=O)(=O)N1CCCC(C(=O)NCc2ccccc2Cl)C1 (centres undefined) | inactive: 1.06% | –
CCN(CC)S(=O)(=O)c1ccc(OC)c(NC(=O)c2sc3ccccc3c2Cl)c1 | inactive: 6.94% | –
Cc1ccc2c(c1)c1c(c(=O)n(Cc3ccccc3)c(=O)n1Cc1ccccc1F)n2C | inactive: 11% | –
CNC(=O)CN1C(=O)COc2ccc(S(=O)(=O)N3CCCCCC3)cc21 | inactive: -0.777% | –
CCOC(=O)N1CCc2c(sc3c2c(=O)n(Cc2ccccc2)c(=O)n3CC(=O)Nc2ccc(F)cc2)C1 | inactive: -2.42% | –

Structure (SMILES) | activity change, negative = cytotoxicity | Potency
COc1ccc(CN(C)c2ccc(-c3nc(-c4ccc(OC)c(OC)c4)no3)cc2[N+](=O)[O-])cc1 | inactive: 5.09% | –
CCOc1ccc(NC(=O)CN(Cc2ccccc2)S(=O)(=O)c2ccc3nc(C)sc3c2)cc1 | inactive: 2.66% | –
CN1C(=O)c2cccc3c(S(=O)(=O)Nc4cccc(C(=O)O)c4)ccc1c23 | inactive: 3.96% | –
CCOc1ccc(CCNC(=O)Cn2c(-c3cccs3)cc3ccccc32)cc1 | inactive: 0.0932% | –
COc1cn(CC(=O)Nc2cc(C)cc(C)c2)c(CN2CCCCC2)cc1=O | inactive: 2.59% | –
CCC(C)S(=O)(=O)c1oc(-c2cccs2)nc1S(=O)(=O)c1ccccc1 (centres undefined) | – | active: 2510 nM
COc1cccc(-c2nnc(SCC(=O)N(C)C3CCCCC3)o2)c1 | inactive: 20% | –
CN1CCc2nc3sc(C(=O)c4ccc(F)cc4)c(N)c3cc2C1 | inactive: 3.03% | –
CCOc1ccccc1CNCc1c(C(=O)O)c(C)n(Cc2ccc(C)cc2)c1C | inactive: -0.973% | –
CCOc1ccc(CCNC(=O)c2cnc3c(-c4ccc(F)cc4)c(C)nn3c2C)cc1 | inactive: -10.1% | –
O=C(NCCCN1CCN(c2ccccc2)CC1)c1sc2ncccc2c1-n1cccc1 | inactive: -24.4% | –
COc1ccc(C(=O)c2cn(Cc3ccccc3)c3ccccc3c2=O)cc1OC | inactive: -1.34% | –
CN1C(C(=O)Nc2cccc(O)c2)=CC(c2cccs2)=NS1(=O)=O | inactive: -10.5% | –
O=C(NCCc1nc2ccccc2n1Cc1ccccc1F)c1ccc(F)cc1 | inactive: -0.702% | –
COc1ccc(N(C(=O)c2ccccc2C)S(=O)(=O)c2ccc(Cl)cc2)cc1 | inactive: -1.36% | –
Nc1ncc(S(=O)(=O)NCc2ccccc2)cn1 | inactive: 8.34% | –
COc1cc(S(=O)(=O)NCCc2c(C)[nH]c3ccc(C)cc23)ccc1Br | inactive: 0.471% | –
COc1cccc(-n2c(SCc3cccc(C)c3)nc3c([nH]c4ccccc43)c2=O)c1 | inactive: 14.3% | –
CCOc1ccc(-n2ccnc2SCC(=O)Nc2cc(C)ccc2C)cc1 | inactive: -23.2% | –
O=C(C1CCC1)N1CCCc2cc(S(=O)(=O)N3CCN(c4cccc(Cl)c4)CC3)ccc21 | inactive: 1.97% | –
CCOc1ccccc1NC(=O)COC(=O)CC(C)(C)CC1=NS(=O)(=O)c2ccccc2N1 | inactive: -3.41% | –
Cc1onc(-c2ccccc2Cl)c1C(=O)Oc1ccc(Cl)cc1Cl | inactive: -14.6% | –
